The values that follow come from the RNAGym collection of RNA variant scans (doi:10.1093/nar/gkz1192).

Read counts are not given, so values of variants with three or more changes are uncertain.

B1: CPEB3 Ribozyme (parent)
chain: UAACAGGGGGCCACAGCAGAAGCGUUCACGUCGCAGCCCCUGUCAGAUUCUGGUGAAUCUGCGAAUUCUGCUGUAUAUCUC

Variants of B1 are the subject of the series. Nature of the series: self-cleavage, relative activity (ratio to wild type); higher = more cleavage; in vitro, sequencing. Put shortly: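 Relative activity compares each variant's cleaved/total read fraction with that of the unmutated ribozyme. To get these fractions, barcoded CPEB3 ribozyme libraries from rounds of error-prone PCR were transcribed with T7 RNA polymerase for 5 hours at 37°C and then given 15 min of DNase I treatment before EDTA was added. The RNAs were reverse transcribed with template switching and sequenced on Illumina, and DNA sequencing linked barcodes to variants. A minimum of 5 reads applied, and three batches were averaged.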
As for UGACAGGGGGCCACAGCAGAAGCGAUCACGUCGCAGCCCCUGUCAGUUUCUGGUGAAUCUGCGAAUUCUGCUGUAUAUCUC [A2G U25A A47U], the self-cleavage turned out to be 0.08.
The value for UGACAGGGGGCCACAGCAGAAGCGACCACGUCGCAGCCCCUGUCAGAUUCUGGUGAAUCUGCGAAUUCUGCUGUAUACCUC [A2G U25A U26C U78C] was 0.25; that for UGACAGGGGGCCACAGCAGAAGCGCUCACGCCGCAGCCCCUGUCAGGUUCUGGUGAAUCUGCGUAUUCUGCUGUAUAUCUC [A2G U25C U31C A47G A64U] was 0.25; that for UGACAGGGGGCCACAGCAGAAGCGUUCACGUCGCAGCCCCGGUGAGAUUCCGGUGGAUCUGCGAAUUCUGCUGUAUAUCUC [A2G U41G C44G U51C A56G] was 0.43.
UGACAGGGGGCCACAGCAGAAGCGUUCACGUCGCAGCCCCCGUCAGAUUCUGGUGAAUCUGCGGAUUCUGCUGUAUAUCUC [A2G U41C A64G]: the self-cleavage was 0.55.
Then UGACAGGGGGCCACAGCAGAAGCGUUCACGUCGCAGCCCCUGACAGAUGCUGGUGAAUCUGCGAAUUCUGCUGUAUAUCUC [A2G U43A U49G], with 0.5; and UGACAGGGGGCCACAGCAGAAGCGUACACGUCGCAGCCCCUGUCAGACUCUGGUGAAUCCGCGAAUUCUGCUGUAUAUCUC [A2G U26A U48C U60C], with 0.3; and UGACAGGGGGCCACAGCAGAAGCGUUCACGUCGCAGCCCCUGCCAGACUCUGGUGAAUCUGCGAAUUCAGCUGUAUAUCUC [A2G U43C U48C U69A], with 0.08.
Then UGACAGGGGGCCACAGCAGAAGCGUACACGUCGCAGCCCUUGUCAGAUUCUGGUGAAUCUGCGAAUUCUGCUGAAUAUCUC [A2G U26A C40U U74A], with 0.3; and UGACAGGGGGCCACAGCAGAAGCGCUCACGUCGCAGCCCCUGUCAGACUCUGGUGAAUCUGCGAAUUCUGCUGUAUAUCUC [A2G U25C U48C], with 0.28.
Take UGACAGGGGGCCACAGCAGAAGCGCUCACGUCGCAGCCCCUGUCAGAUUCUGGUGAAUCUGCGAAUUCAGCUGUAUAUCUC [A2G U25C U69A]: the self-cleavage was determined as 0.22.
UGACAGGGGGCCACAGCAGAAGCGAUCACGUCGUAGCCCCUGUCAGAUCCUGGUGAAUCUGCGAAUUCUGCUGUAUAUCUC [A2G U25A C34U U49C]: the self-cleavage turned out to be 0.07.
With UGACAGGGGGCCACAGCAGAAGCGCUCACGUCGCAGCCCCUGUCAGGUACUGGUGAAUCUGCGAACUCUGCUGUAUAUCUC [A2G U25C A47G U49A U66C], the self-cleavage was found to be 0.17.
In the case of UGACAGGGGGCCACAGCAGAAGCGCUCACGUCGCGGCCCCUGUCAGUUUCCGGUGAAUCUGCGAAUUCAGCAGUAUAUCUC [A2G U25C A35G A47U U51C U69A U72A], the self-cleavage came to 0.14.
Then UGACAGGGGGCCACAGCAGAAGCGCUCACGCCGCAGCCCCUGUCAGAUUCUGGCGUAUCUGCGAAUUCUGCCGUAUAUCCC [A2G U25C U31C U54C A56U U72C U80C], with 0.06; and UGACAGGGGGCCACAGCAGAAGCGUUCACGUCGCAGCCCCUGCCAGAUUCUGGUGAAUCUGCGAAAUCUGCUGUAUAUCUC [A2G U43C U66A], with 0.29; and UGACAGGGGGCCACAGCAGAAGCGUUCACGUCGCAGCCCCUGUCAGAUUCUGGUGAAUCUGCGAAUUCUGCUAUAUAACUC [A2G G73A U78A], with 1.24.
Regarding UGACAGGGGGCCACAGCAGAAGCGCCCACAUCGCAGCCCCUGUCAGAUUCUGGAGAAUCCGCGAAUUCUGCUGUAAAUCUC [A2G U25C U26C G30A U54A U60C U76A], the self-cleavage is 0.05.
Take UGACAGGGGGCCACAGCAGAAGCGUACACGUCGCAGCCCCUGUCAGAUUCUGAUGAAUCUGCGAAUUCUGCUGUAUAUCUC [A2G U26A G53A]: the self-cleavage is 0.23.
The value for UGACAGGGGGCCACAGCAGAAGCGUUCACGACGCAGCCCCUGUCGGACUCUGGUGAAUCUGCAAAUUCUGCUGUAUAUCUC [A2G U31A A45G U48C G63A] was 0.28; that for UGACAGGGGGCCACAGCAGAAGCGCUAACGACGCAGCCCCUGUCAGAUUCUGGUGAAUCUGCGAAUUCUGCUGUAUAUCUC [A2G U25C C27A U31A] was 0.08; that for UGACAGGGGGCCACAGCAGAAGCGUUCACGUCGCAGCCCCCGUCAGAUUCUGGUGAAUCUGCGAAUUCGGCUGUAUAUCUC [A2G U41C U69G] was 0.66.
On to UGACAGGGGGCCACAGCAGAAGCGUUCACGACGCUGCCCCUGUCGGAUCCUGGUGAAUCUGCGAAUUCUGCUGUAUAUUUC [A2G U31A A35U A45G U49C C79U], for which the self-cleavage worked out at 0.23.
The value for UGACAGGGGGCCACAGCAGAAGCGUUCACGUCGCAGCCCCUGUCAGAUCCUGGUGAAUCUGCGAAUUCUGCAGUAUAUCUC [A2G U49C U72A] was 0.16; that for UGACAGGGGGCCACAGCAGAAGCGCUCACGUCGCAGCCUCUGUCAGAUUCUGGUGAAUCUGCGAAUUCUGCUGUAUAUCUC [A2G U25C C39U] was 0.51.
In the case of UGACAGGGGGCCACAGCAGAAGCGUUCACGCCGCGGCCCCUGUCAGAUUCUGGUGAAUCGGCGAAUUCUGCUGUAUAUCUC [A2G U31C A35G U60G], the self-cleavage was 0.24.
Then UGACAGGGGGCCACAGCAGAAGCGCUCACAUCGCAGCCCCUGUCAGACUCUGGCGUAUCUGCGAAUUCUGCUGUAUAUCCC [A2G U25C G30A U48C U54C A56U U80C], with 0.14; and UGACAGGGGGCCACAGCAGAAGCGCUAACGUCGCAGCCCCUGUCAGAUUCUGGUGAAUCUGCGAAUUCUGCUGUAUAUCUC [A2G U25C C27A], with 0.3.
As to UGACAGGGGGCCACAGCAGAAGCGUCCACGUCGCAGCCCCUGUCUGAUUCUGGUGAAUCUGCGAAUUCUGCAGUAUAUCUC [A2G U26C A45U U72A], the self-cleavage came out at 0.05.
As for UGACAGGGGGCCACAGCAGAAGCGUUCACGUCGCAGCCCCUGCCAGAUUCUGGAGAAUCUGCGAAUUCUGCUGUAUACCUC [A2G U43C U54A U78C], the self-cleavage worked out at 0.37.
For the variant UGACAGGGGGCCACAGCAGAAGCGUACACGUCCCAGCCCCUGUCAGAUUCUGGUGAAUCUGCGAAUUCUGCUGUAUAUCUC [A2G U26A G33C], the self-cleavage amounted to 0.52.
The value for UGACAGGGGGCCACAGCAGAAGCGUUCACGUCGCAGCCCCUGUCAGAUUCUGGUGAAUCUGCGAAUUCUACUGUACAUCAC [A2G G70A U76C U80A] was 0.17; that for UGACAGGGGGCCACAGCAGAAGCGUUCACGUCGCAGCCCCUGUCAGAUUCAGGUGAAUCUGCGAAUACUGCUGUAUAUCUC [A2G U51A U67A] was 0.4.
The value for UGACAGGGGGCCACAGCAGAAGCGUUCACGACGCAGCCCCUGUCAGAUUCUGGCGAAUCCGCGAACUCUGCUGUAUGUCUC [A2G U31A U54C U60C U66C A77G] was 0.06.
